# The supplement of paper PMC4166925
# ± gives the standard deviation of the averaged measurements. Over roughly 33,000 sequences, “E-score (dimensionless, -0.5 to 0.5)” has its median near -0.049; the highest 2% begin near 0.37. Some of the results follow.
# Tested on: T1, PmTbr T-box DNA-binding domain (GST fusion)
# T1 sequence: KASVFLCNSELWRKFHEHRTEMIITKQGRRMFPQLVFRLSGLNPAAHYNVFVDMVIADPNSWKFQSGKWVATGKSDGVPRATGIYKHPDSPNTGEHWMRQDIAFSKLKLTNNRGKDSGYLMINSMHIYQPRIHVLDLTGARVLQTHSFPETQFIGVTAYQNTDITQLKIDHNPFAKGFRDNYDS
# Experiment: PBM E-score of 8-mer (E-score (dimensionless, -0.5 to 0.5)); Tbr is Tbrain of the sea star Patiria miniata (Pm) or the sea urchin Strongylocentrotus purpuratus (Sp); higher = stronger binding preference; most listed sequences are background and not binding sites
# Details: the construct has about 5 more residues each side
# Procedure, shortened: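 Each ungapped 8-mer received an enrichment E-score from the Universal PBM Analysis Suite, averaged over duplicate arrays. The proteins were Tbr T-box DNA-binding domains, covering the whole T-box plus about five flanking residues, fused to GST and expressed in BL21 E. coli at 20 °C before glutathione affinity purification. Universal Agilent oligonucleotide arrays were made double-stranded by primer extension and incubated with 200 nM protein in PBS (pH 7.5). The arrays were then scanned and quantified, and every 8-mer was scored from probe intensities.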
row,Sequence,PBM E-score of 8-mer
1,AGTATTTA,-0.144 ± 0.006
2,CTGAAACA,-0.183 ± 0.022
3,ATGGTAGA,-0.0338 ± 0.1
4,AACACGGT,0.133 ± 0.049
5,GAGGAGGC,0.0601 ± 0.015
6,CTTTCTTC,-0.0736 ± 0.1
7,CGATGTAG,-0.212 ± 0.04
8,AACAAATT,0.0401 ± 0.094
9,GGAACATA,-0.215 ± 0.011
10,CTAACGGA,0.0817 ± 0.064
11,AGAAATAC,-0.0878 ± 0.0053
12,AGGATACG,0.0582 ± 0.014
13,CGAATGAG,-0.0849 ± 0.022
14,ATTTTACG,-0.126 ± 0.049
15,CCTCTAAC,-0.0816 ± 0.025
16,GGCTAAAA,-0.22 ± 0.064
17,ACTGACAT,0.0983 ± 0.064
18,ATAGATCC,-0.25 ± 0.031
19,AGACGAGA,0.0969 ± 0.0083
20,TAATAACA,0.119 ± 0.14
21,GCCATGTA,-0.101 ± 0.045
22,ACGATCCA,-0.237 ± 0.072
23,CAGTAATC,0.12 ± 0.012
24,AGACAAAG,-0.0593 ± 0.018

row,Sequence,PBM E-score of 8-mer
1,AACTTTAT,0.00789 ± 0.075
2,CCACTCCG,-0.01631 ± 0.00014
3,CTTAGTCA,-0.148 ± 0.017
4,AAGCTACG,-0.0856 ± 0.073
5,GTATTGGA,-0.248 ± 0.035
6,AAGGTTGG,-0.217 ± 0.13
7,GATTGAGA,-0.185 ± 0.025
8,GCATCGCA,0.0234 ± 0.0033
9,AATTAGAT,-0.172 ± 0.0059
10,GCCGAAAC,-0.255 ± 0.019
11,AACGATAC,-0.0172 ± 0.013
12,GATAGTCC,-0.127 ± 0.061
13,GCAATGCC,-0.133 ± 0.016
14,CCACGTAA,-0.149 ± 0.068
15,ATATTCAA,-0.197 ± 0.032
16,GGACAAGA,-0.239 ± 0.035
17,ACCGGATC,-0.144 ± 0.011
18,GTCCCCCA,-0.019 ± 0.041
19,CCTAAGAA,0.016 ± 0.05
20,TAACCCTA,-0.134 ± 0.032
21,GCGTAGCA,0.159 ± 0.013
22,ACCGCCGT,-0.217 ± 0.0029
23,TAGTTTAA,-0.117 ± 0.0079
24,AACTCATT,-0.0513 ± 0.024

row,Sequence,PBM E-score of 8-mer
1,CATGCATG,-0.173 ± 0.082
2,AGTGGCCA,-0.022 ± 0.035
3,AGTACCGG,-0.347 ± 0.02
4,AGAATACC,-0.15 ± 0.046
5,CTAAGTAG,-0.156 ± 0.051
6,CGAGACTC,0.0667 ± 0.093
7,GAGGTCGC,0.228 ± 0.035
8,GACCGGGC,-0.0921 ± 0.02
9,AATTACCA,0.0867 ± 0.056
10,GAATCGAC,0.0766 ± 0.0047
11,CTAACCTA,0.0525 ± 0.04
12,GAGACTGA,-0.017 ± 0.038
13,GCCCATAA,-0.162 ± 0.027
14,CGCTTACA,0.0751 ± 0.065
15,CTGTAGCC,-0.0966 ± 0.055
16,TGTAGCAA,-0.0247 ± 0.024
17,GCTCACCA,-0.0238 ± 0.034
18,GGGCAGGA,-0.23 ± 0.033
19,AAGCTTCC,-0.203 ± 0.04
20,ATTATGTC,-0.151 ± 0.0087
21,GCTCCCCA,-0.0445 ± 0.0037
22,CTTGGGCA,-0.0563 ± 0.032
23,AACGATTA,-0.0891 ± 0.098
24,ATCGGCGA,-0.0552 ± 0.02

row,Sequence,PBM E-score of 8-mer
1,ATACGTAT,-0.0177 ± 0.13
2,ATAGATTC,-0.134 ± 0.0044
3,ACCCTGCA,-0.101 ± 0.045
4,CAACATGG,0.0369 ± 0.033
5,ATGGCACG,0.189 ± 0.041
6,GGGACGTA,-0.286 ± 0.12
7,AAAAGTGT,0.413 ± 0.015
8,CATTTGGA,-0.0402 ± 0.078
9,AGAGTTCA,0.0192 ± 0.0048
10,CGGGGGGA,-0.146 ± 0.0095
11,GACCCGTC,0.135 ± 0.11
12,AACATATA,-0.144 ± 0.024
13,AGGGCTGG,-0.231 ± 0.029
14,CTAAGTTC,-0.155 ± 0.007
15,GGAGATCC,-0.228 ± 0.033
16,AATGTCTA,-0.0762 ± 0.039
17,TTGCAAAA,0.107 ± 0.0079
18,CACCGACC,-0.0662 ± 0.0026
19,AATGTTAA,-0.0297 ± 0.11
20,ACTGCGAT,0.107 ± 0.048
21,AGACCGCA,-0.254 ± 0.031
22,CAAGCAAG,0.0511 ± 0.028
